{
  "source": "the supplement of paper PMC3334620",
  "note": "Whole data set: some 33,000 sequences, median “E-score (-0.5 to 0.5)” near -0.011, cut for the highest 2% near 0.28. This is one part of the list.",
  "data": [
    {"target": "T1, Gcr1 (UniProt P07261)", "T1 sequence": "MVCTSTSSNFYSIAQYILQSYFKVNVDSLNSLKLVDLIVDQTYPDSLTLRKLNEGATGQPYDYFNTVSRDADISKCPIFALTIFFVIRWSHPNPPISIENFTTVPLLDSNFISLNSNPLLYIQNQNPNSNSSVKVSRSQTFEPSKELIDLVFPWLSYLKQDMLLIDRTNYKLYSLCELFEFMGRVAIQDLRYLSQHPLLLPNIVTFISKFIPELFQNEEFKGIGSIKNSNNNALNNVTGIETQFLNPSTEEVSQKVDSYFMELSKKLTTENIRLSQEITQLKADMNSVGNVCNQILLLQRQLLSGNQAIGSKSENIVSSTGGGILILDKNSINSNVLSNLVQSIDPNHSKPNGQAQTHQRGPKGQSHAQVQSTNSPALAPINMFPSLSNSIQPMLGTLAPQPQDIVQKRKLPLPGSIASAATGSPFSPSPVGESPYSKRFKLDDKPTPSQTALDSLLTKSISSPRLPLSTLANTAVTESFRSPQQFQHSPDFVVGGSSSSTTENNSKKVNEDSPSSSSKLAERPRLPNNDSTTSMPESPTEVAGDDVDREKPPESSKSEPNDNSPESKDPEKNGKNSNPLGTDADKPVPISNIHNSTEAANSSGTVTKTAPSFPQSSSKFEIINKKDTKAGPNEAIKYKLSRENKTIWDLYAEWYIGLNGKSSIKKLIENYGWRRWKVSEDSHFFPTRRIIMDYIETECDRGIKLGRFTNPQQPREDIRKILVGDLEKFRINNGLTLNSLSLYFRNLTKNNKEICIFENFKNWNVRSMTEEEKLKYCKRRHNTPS", "assay": "PBM E-score (8-mer binding enrichment) (E-score (-0.5 to 0.5)); higher = stronger / more preferred TF binding; most listed sequences are background and not binding sites", "conditions": "protein concentration: 100 nM; construct: GST-full length", "method_in_brief": "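Universal all-10-mer Agilent arrays, double-stranded by primer extension on fresh or once-stripped slides, were probed with about 100-200 nM GST-tagged yeast transcription factors made by PURExpress. Fluorescent anti-GST detected bound protein, and masliner normalised the scans. E-scores from the Universal PBM Analysis Suite were given to each ungapped eight-base word pooled with its reverse complement.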", "values": [
      {"sequence": "GACTGTAC", "PBM E-score": -0.314},
      {"sequence": "ACCCTCTC", "PBM E-score": -0.0871},
      {"sequence": "CACCATCG", "PBM E-score": -0.264},
      {"sequence": "GCACAAAA", "PBM E-score": 0.0313},
      {"sequence": "CCTCTAAA", "PBM E-score": 0.189},
      {"sequence": "AGCATCTC", "PBM E-score": 0.121},
      {"sequence": "ATAAAGGG", "PBM E-score": 0.123},
      {"sequence": "GCCTTGCA", "PBM E-score": -0.137},
      {"sequence": "ACAATGCC", "PBM E-score": -0.149},
      {"sequence": "AGCAGAGC", "PBM E-score": -0.0975},
      {"sequence": "AGGACGTC", "PBM E-score": 0.155},
      {"sequence": "AAAGGATC", "PBM E-score": 0.0868},
      {"sequence": "CGTCATCC", "PBM E-score": 0.0357},
      {"sequence": "CCTGATCA", "PBM E-score": -0.104},
      {"sequence": "ATAACCCG", "PBM E-score": -0.25},
      {"sequence": "CATTACGA", "PBM E-score": 0.148},
      {"sequence": "AACGATAA", "PBM E-score": -0.0612},
      {"sequence": "CCTGGGAA", "PBM E-score": 0.169},
      {"sequence": "ACGGTCAA", "PBM E-score": -0.174},
      {"sequence": "CCGATTCG", "PBM E-score": 0.0853},
      {"sequence": "CGAACTAA", "PBM E-score": 0.0461},
      {"sequence": "CGCCTGCA", "PBM E-score": -0.117},
      {"sequence": "ACGGACTG", "PBM E-score": -0.16},
      {"sequence": "GGTATTAA", "PBM E-score": -0.083},
      {"sequence": "AGACTGAG", "PBM E-score": -0.0581},
      {"sequence": "CATTTGTA", "PBM E-score": -0.0462},
      {"sequence": "CGGACCAC", "PBM E-score": -0.206},
      {"sequence": "AGGGGCAT", "PBM E-score": 0.042},
      {"sequence": "AAAGTTAC", "PBM E-score": -0.0856},
      {"sequence": "AAAGACAT", "PBM E-score": -0.0996},
      {"sequence": "TACAAATA", "PBM E-score": 0.157},
      {"sequence": "AGCCCGCT", "PBM E-score": -0.0919},
      {"sequence": "ATACGTCG", "PBM E-score": -0.0142},
      {"sequence": "CGACCATA", "PBM E-score": -0.0656},
      {"sequence": "CATGTGAG", "PBM E-score": -0.131},
      {"sequence": "GCGATAAC", "PBM E-score": -0.14},
      {"sequence": "AAAAACCA", "PBM E-score": 0.128},
      {"sequence": "GGAAATCC", "PBM E-score": -0.0402},
      {"sequence": "GACGACGA", "PBM E-score": -0.0324},
      {"sequence": "AACAGATG", "PBM E-score": 0.00176},
      {"sequence": "TTCTTAAA", "PBM E-score": 0.0388},
      {"sequence": "CAGTTAAA", "PBM E-score": -0.138},
      {"sequence": "AGCCCTCG", "PBM E-score": -0.228},
      {"sequence": "AACCTAAG", "PBM E-score": -0.0759},
      {"sequence": "GTCCATGA", "PBM E-score": 0.0119},
      {"sequence": "GCGCGACC", "PBM E-score": -0.0227},
      {"sequence": "CAGAAGGA", "PBM E-score": -0.00692},
      {"sequence": "CCGTATGC", "PBM E-score": -0.241},
      {"sequence": "CAGGAAAA", "PBM E-score": 0.0134},
      {"sequence": "CGCGAGAA", "PBM E-score": -0.113},
      {"sequence": "CTCGCCTA", "PBM E-score": 0.0109},
      {"sequence": "CACTGTCA", "PBM E-score": -0.155},
      {"sequence": "ACAAAAAA", "PBM E-score": 0.205},
      {"sequence": "AACTAGGG", "PBM E-score": 0.0287},
      {"sequence": "TACCTAGA", "PBM E-score": 0.0114},
      {"sequence": "AAACAAAA", "PBM E-score": -0.0284},
      {"sequence": "CCCGCAAA", "PBM E-score": 0.05},
      {"sequence": "CCTTTACA", "PBM E-score": -0.106},
      {"sequence": "CCACGATA", "PBM E-score": 0.228},
      {"sequence": "AAGGATAC", "PBM E-score": 0.242},
      {"sequence": "CGAGTTCA", "PBM E-score": 0.015},
      {"sequence": "GGGCCTAA", "PBM E-score": -0.182},
      {"sequence": "ATGTCGTC", "PBM E-score": -0.0129},
      {"sequence": "ACTTCGCC", "PBM E-score": 0.0237},
      {"sequence": "ATTATGTG", "PBM E-score": 0.0106},
      {"sequence": "AAGGGTTC", "PBM E-score": -0.00512},
      {"sequence": "ACTTATTG", "PBM E-score": 0.103},
      {"sequence": "AAACTGAA", "PBM E-score": 0.108},
      {"sequence": "ACGACCGG", "PBM E-score": -0.072},
      {"sequence": "AACAGCCA", "PBM E-score": 0.0692},
      {"sequence": "ACCTCGTG", "PBM E-score": 0.184},
      {"sequence": "CTCTAATA", "PBM E-score": 0.0731},
      {"sequence": "GCACTGTA", "PBM E-score": -0.19},
      {"sequence": "TAGTATCA", "PBM E-score": 0.0856},
      {"sequence": "GAAAGGAA", "PBM E-score": 0.0552},
      {"sequence": "AGGTGATG", "PBM E-score": 0.0349},
      {"sequence": "CTACATCA", "PBM E-score": 0.00908},
      {"sequence": "CTCTGTTA", "PBM E-score": -0.0923},
      {"sequence": "CCATGGAA", "PBM E-score": -0.0196},
      {"sequence": "GTGTGGAA", "PBM E-score": 0.193},
      {"sequence": "AATGACCT", "PBM E-score": -0.123},
      {"sequence": "ATTGGAAC", "PBM E-score": 0.221},
      {"sequence": "TAACTGTA", "PBM E-score": -0.219},
      {"sequence": "GCCACGAC", "PBM E-score": -0.13},
      {"sequence": "AGTTACGC", "PBM E-score": 0.0168},
      {"sequence": "AGTAGAGG", "PBM E-score": -0.066}
    ]}
  ]
}
